In article PMC2939065:
No constants are given. Whether binding was seen depends on the method and setting. For some assays here: In cells and extracts the contact can be indirect. Some results given as binding are weak or reduced against the parent protein; the word gives no strength. For some assays here: Sequences can lack the tags named with a protein.

Chains of the proteins cited; added tags and fusions are not shown. Lines headed by an entry give the natural chain unless they say otherwise; changes in a name come on top. A line that says so, or that is headed by a name, gives the form on record, which may keep a tag or linker. Residues count along the entry.
UniProt P00519, residues 61-121: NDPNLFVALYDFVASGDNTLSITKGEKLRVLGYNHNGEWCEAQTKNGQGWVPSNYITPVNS
C-terminal tail of PC-1 fused to poly-HIS tag (HIS-PC-1-CT) (P98161, residues 4133-4303): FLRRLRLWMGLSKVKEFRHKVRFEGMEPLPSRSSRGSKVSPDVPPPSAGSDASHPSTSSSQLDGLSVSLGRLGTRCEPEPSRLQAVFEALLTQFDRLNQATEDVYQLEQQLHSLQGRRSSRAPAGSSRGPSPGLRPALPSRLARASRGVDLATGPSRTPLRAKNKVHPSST
HIS-PC-1-CT with Proline 4172 (PP1) replaced with Leucine (P98161-3, form named): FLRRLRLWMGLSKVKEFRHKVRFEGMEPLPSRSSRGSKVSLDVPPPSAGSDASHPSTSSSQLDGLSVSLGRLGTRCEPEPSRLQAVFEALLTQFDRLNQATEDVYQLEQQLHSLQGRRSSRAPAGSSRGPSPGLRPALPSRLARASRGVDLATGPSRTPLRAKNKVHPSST
HIS-PC-1-CT with Proline 4270 (PP2) replaced with Leucine (P98161-3, form named): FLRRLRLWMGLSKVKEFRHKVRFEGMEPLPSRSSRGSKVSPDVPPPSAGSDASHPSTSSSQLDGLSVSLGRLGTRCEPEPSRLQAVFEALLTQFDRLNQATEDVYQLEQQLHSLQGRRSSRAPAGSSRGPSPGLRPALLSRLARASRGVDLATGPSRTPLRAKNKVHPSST

Experiments:
[1] = target: SH3 domain of Abl fused to GST (pull-down) (UniProt P00519); assay: pull-down; GST- and HIS-fused proteins expressed in E. coli BL21; cleared supernatants mixed 2 to 4 h at 4°C, then glutathione beads 2 to 4 h at 4°C; immunoblotting
[2] = target: T1, GST-fused SH3 domain of NPHP1 (GST-NPHP1-SH3) (human) (UniProt O15259); assay: as above
T1 sequence: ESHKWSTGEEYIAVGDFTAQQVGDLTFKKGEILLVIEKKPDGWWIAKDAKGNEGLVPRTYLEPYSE

[3] = target: T2, SH3 domain of NPHP1 fused to GST, spotted on the TranSignal SH3 Domain array (UniProt O15259); assay: peptide or protein array; TranSignal SH3 Domain arrays (Panomics): GST-SH3 domains spotted in duplicate on membranes, incubated with bacterial extract of HIS-PC-1-CT, detected with anti-HIS antibody and chemiluminescence; spots quantified with ImageQuant; done twice; only the target purified
T2 sequence: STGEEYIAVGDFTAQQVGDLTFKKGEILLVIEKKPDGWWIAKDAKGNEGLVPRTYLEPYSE

## C-terminal tail of PC-1 fused to poly-HIS tag (HIS-PC-1-CT) (from UniProt P98161-3 4132-4302) (domain or fragment)
[1]
  binding: no binding
[2]
  binding: binds
[3]
  binding: binds

## HIS-PC-1-CT with Proline 4172 (PP1) replaced with Leucine (from UniProt P98161-3 4132-4302) (domain or fragment)
[2]
  binding: binds

## HIS-PC-1-CT with Proline 4270 (PP2) replaced with Leucine (from UniProt P98161-3 4132-4302) (domain or fragment)
[2]
  binding: no binding
